Structures can show the parent of a compound that is named as a salt. Viability of KB3-1 and Nalm-6 cells after 48 h of drug alone (CellTiter-Glo), 11 doses over about 4.5 log units. % of DMSO wells, lower = more cell loss; AC50 from the fitted curve, lower = more potent. No active / inactive call. Nalm-6 was screened in two runs. AC50 is listed only for well-fitted inhibitory curves. KB3-1 is a HeLa-derived carcinoma line, Nalm-6 a B-cell precursor leukaemia line.
Assays:
Nalm-6 [1] = test: log AC50 of viability decrease (48 h) (log10 M); higher = less potent
Method: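 Eleven-dose screen of the NCATS MIPE 3 library on cells without co-treatment; CellTiter-Glo after 48 h. AC50 from the curve fit; only inhibitory curves of the better fit classes are listed.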

Nalm-6 [2] = test: viability (% of DMSO control); higher = more viable cells
Method: (§1)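 Eleven-dose screen of the NCATS MIPE 3 library on cells without co-treatment; CellTiter-Glo after 48 h, as % of DMSO wells.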

KB3-1 = test: as above
Method: as §1

Structure (SMILES) | log AC50 of viability decrease (Nalm-6 [1]; run: 1) | log AC50 of viability decrease (Nalm-6 [1]; run: 2) | viability (Nalm-6 [2]; run: 1, 0.00078 µM) | viability (Nalm-6 [2]; run: 1, 0.00234 µM) | viability (Nalm-6 [2]; run: 1, 0.00702 µM) | viability (Nalm-6 [2]; run: 1, 0.0211 µM) | viability (Nalm-6 [2]; run: 1, 0.0632 µM) | viability (Nalm-6 [2]; run: 1, 0.19 µM) | viability (Nalm-6 [2]; run: 1, 0.569 µM) | viability (Nalm-6 [2]; run: 1, 1.71 µM) | viability (Nalm-6 [2]; run: 1, 5.12 µM) | viability (Nalm-6 [2]; run: 1, 15.4 µM) | viability (Nalm-6 [2]; run: 1, 46.1 µM) | viability (Nalm-6 [2]; run: 2, 0.00078 µM) | viability (Nalm-6 [2]; run: 2, 0.00234 µM) | viability (Nalm-6 [2]; run: 2, 0.00702 µM) | viability (Nalm-6 [2]; run: 2, 0.0211 µM) | viability (Nalm-6 [2]; run: 2, 0.0632 µM) | viability (Nalm-6 [2]; run: 2, 0.19 µM) | viability (Nalm-6 [2]; run: 2, 0.569 µM) | viability (Nalm-6 [2]; run: 2, 1.71 µM) | viability (Nalm-6 [2]; run: 2, 5.12 µM) | viability (Nalm-6 [2]; run: 2, 15.4 µM) | viability (Nalm-6 [2]; run: 2, 46.1 µM) | viability (KB3-1; 0.00078 µM) | viability (KB3-1; 0.00234 µM) | viability (KB3-1; 0.00702 µM) | viability (KB3-1; 0.0211 µM) | viability (KB3-1; 0.0632 µM) | viability (KB3-1; 0.19 µM) | viability (KB3-1; 0.569 µM) | viability (KB3-1; 1.71 µM) | viability (KB3-1; 5.12 µM) | viability (KB3-1; 15.4 µM) | viability (KB3-1; 46.1 µM)
CN(C)CCN(C)CCc1ccc(Cl)c(Cl)c1 [BD-1047] | -4.78 | -4.73 | 111% | 127% | 117% | 111% | 119% | 117% | 118% | 106% | 95.7% | 95.3% | 70.2% | 113% | 115% | 110% | 105% | 108% | 116% | 112% | 104% | 102% | 96.1% | 74.5% | 107% | 109% | 107% | 106% | 106% | 107% | 108% | 103% | 106% | 99.4% | 89.8%
CC[C@@H]1C(=O)N(C)c2cnc(Nc3ccc(C(=O)NC4CCN(C)CC4)cc3OC)nc2N1C1CCCC1 [BI-2536] | -8.28 | -8.18 | 86.6% | 85% | 32.9% | 15.2% | 15.5% | 20.5% | 16.3% | 14.6% | 11.7% | 6.45% | 5.02% | 92.2% | 92.2% | 46.9% | 13.5% | 12% | 15% | 11.1% | 6.72% | 5.61% | 4.43% | 4.71% | 82.8% | 33.4% | 32.1% | 31.5% | 32.2% | 32.9% | 36.5% | 45.3% | 53.6% | 51.4% | 3.77%
C/C(=C\C(=O)Nc1ccccc1C(=O)O)c1ccc2ccccc2c1 [BIBR 1532] | -5.03 | -4.78 | 117% | 122% | 122% | 125% | 124% | 121% | 126% | 125% | 115% | 43.1% | 29.7% | 111% | 111% | 105% | 107% | 112% | 110% | 113% | 110% | 104% | 60.3% | 6.26% | 107% | 107% | 106% | 104% | 105% | 106% | 108% | 105% | 107% | 97.4% | 68.1%
CC(O)(CS(=O)(=O)c1ccc(F)cc1)C(=O)Nc1ccc(C#N)c(C(F)(F)F)c1 (configuration not stated) [Bicalutamide] | -4.73 | – | 105% | 105% | 102% | 107% | 114% | 112% | 109% | 110% | 103% | 96.4% | 74.2% | 103% | 109% | 112% | 113% | 110% | 111% | 109% | 107% | 105% | 112% | 88.3% | 103% | 106% | 105% | 105% | 103% | 108% | 105% | 104% | 97.1% | 100% | 86.6%
CC1=CC=C2\N=C/3N(CCC3(O)C(=O)C2=C1)C4=CC=CC=C4 (configuration not stated) [Blebbistatin] | -5.03 | – | 93.8% | 101% | 97.5% | 108% | 109% | 107% | 103% | 106% | 95.1% | 70.9% | 62.9% | 102% | 101% | 101% | 95.9% | 94.2% | 104% | 99.4% | 104% | 91% | 91.1% | 83.1% | 101% | 101% | 100% | 98.1% | 96.7% | 99.2% | 103% | 102% | 98.7% | 96.9% | 87%
CC[C@H](NC1=C2N=C[NH]C2=NC=N1)C/3=N/C4=C(C(=CC=C4)F)C(=O)N3C5=CC=CC=C5 [CAL-101] | -4.83 | -4.68 | 116% | 105% | 118% | 118% | 115% | 114% | 104% | 94.8% | 92.2% | 78.1% | 51.4% | 102% | 107% | 105% | 103% | 108% | 101% | 103% | 96.7% | 95.1% | 89.8% | 61% | 105% | 102% | 104% | 106% | 110% | 108% | 108% | 102% | 98% | 97.6% | 84.8%
COc1cc2nccc(Oc3ccc(NC(=O)C4(C(=O)Nc5ccc(F)cc5)CC4)cc3)c2cc1OC [Cabozantinib] | -4.68 | -4.68 | 98.7% | 105% | 108% | 106% | 110% | 109% | 108% | 109% | 87.5% | 77.7% | 3.7% | 109% | 115% | 110% | 116% | 109% | 110% | 107% | 102% | 93.8% | 85.7% | 3.17% | 98.2% | 103% | 101% | 99.1% | 101% | 98.5% | 105% | 103% | 107% | 106% | 13.6%
COc1cc2c(Oc3ccc4[nH]c(C)cc4c3F)ncnc2cc1OCCCN1CCCC1 [Cediranib] | -5.03 | -4.88 | 101% | 95.4% | 95.4% | 101% | 96.6% | 91.8% | 100% | 85% | 69% | 20.6% | 0.283% | 107% | 106% | 113% | 113% | 109% | 104% | 107% | 93.7% | 82.5% | 33.9% | 1.42% | 96.7% | 96.7% | 101% | 97.9% | 99% | 96.7% | 96.5% | 95.7% | 96.2% | 94.7% | 1.86%
COc1ccc(CCN2CCN(CCCc3ccccc3)CC2)cc1OC [Cutamesine hydrochloride] | -4.83 | -4.63 | 110% | 120% | 124% | 123% | 110% | 113% | 115% | 105% | 104% | 85.1% | 67.1% | 107% | 109% | 104% | 104% | 107% | 98.9% | 96.9% | 98.2% | 96.7% | 93.4% | 63.2% | 108% | 106% | 107% | 112% | 108% | 112% | 107% | 102% | 104% | 95.3% | 87.1%
NC(=O)c1ccc(-c2nc(-c3ccc4c(c3)OCCO4)c(-c3ccccn3)[nH]2)cc1 [D-4476] | – | -4.68 | 103% | 98.5% | 95.9% | 102% | 108% | 112% | 123% | 114% | 111% | 112% | 73.8% | 120% | 103% | 115% | 117% | 115% | 114% | 118% | 118% | 114% | 104% | 80.9% | 100% | 88.9% | 96.5% | 101% | 101% | 100% | 105% | 107% | 109% | 108% | 84.7%
CCC[C@H](NC(=O)/C(C#N)=C/c1cccc(Br)n1)c1ccccc1 [Degrasyn] | -6.03 | -5.98 | 106% | 117% | 107% | 114% | 108% | 102% | 88.5% | 17.1% | 6.62% | 4.73% | 0.988% | 106% | 95% | 98.8% | 99.7% | 109% | 99.2% | 81.4% | 28.2% | 3.86% | 2.65% | 1.41% | 101% | 105% | 105% | 101% | 103% | 102% | 102% | 97.1% | 89.8% | 15.2% | 53.4%
Cc1ccc(-n2nc(C(C)(C)C)cc2NC(=O)Nc2ccc(OCCN3CCOCC3)c3ccccc23)cc1 [Doramapimod] | -4.73 | -4.98 | 113% | 117% | 115% | 108% | 104% | 108% | 112% | 97.9% | 92.5% | 88.9% | 55.5% | 107% | 110% | 107% | 100% | 105% | 103% | 104% | 99.8% | 103% | 61.9% | 52.7% | 102% | 106% | 93.9% | 100% | 99.4% | 100% | 106% | 102% | 103% | 105% | 88.9%
C=C1/C(=C\C=C2/CCC[C@]3(C)[C@@H]([C@H](C)/C=C/[C@H](C)C(C)C)CC[C@@H]23)C[C@@H](O)C[C@@H]1O [Doxercalciferol] | -4.68 | -4.68 | 107% | 101% | 103% | 128% | 110% | 117% | 116% | 108% | 104% | 84.2% | -1.59% | 95.7% | 101% | 97.5% | 106% | 102% | 97.4% | 102% | 102% | 100% | 74.8% | -0.912% | 103% | 104% | 105% | 110% | 109% | 107% | 116% | 115% | 108% | 110% | 101%
COc1cc2c(cc1OC)CN(CCc1ccc(NC(=O)c3cccc4c(=O)c5cccc(OC)c5[nH]c34)cc1)CC2 [Elacridar] | -4.73 | -4.73 | 110% | 104% | 112% | 118% | 111% | 105% | 103% | 104% | 96.4% | 84.7% | 47.5% | 104% | 104% | 107% | 104% | 108% | 104% | 101% | 106% | 105% | 90.2% | 64.8% | 100% | 108% | 96% | 112% | 105% | 103% | 102% | 98% | 99.7% | 95.1% | 85.7%

Source: the supplement of paper PMC4996465
